From publication PMC4007767
No constants are given. Whether binding was seen depends on the method and setting. In cells and extracts the contact can be indirect. Some results given as binding are weak or reduced against the parent protein; the word gives no strength.

Amino acid sequences for entries named in this document (tags omitted). A change or cut given only in a name is not applied to a line headed by its entry. Residues count along the entry.
UniProt Q99816: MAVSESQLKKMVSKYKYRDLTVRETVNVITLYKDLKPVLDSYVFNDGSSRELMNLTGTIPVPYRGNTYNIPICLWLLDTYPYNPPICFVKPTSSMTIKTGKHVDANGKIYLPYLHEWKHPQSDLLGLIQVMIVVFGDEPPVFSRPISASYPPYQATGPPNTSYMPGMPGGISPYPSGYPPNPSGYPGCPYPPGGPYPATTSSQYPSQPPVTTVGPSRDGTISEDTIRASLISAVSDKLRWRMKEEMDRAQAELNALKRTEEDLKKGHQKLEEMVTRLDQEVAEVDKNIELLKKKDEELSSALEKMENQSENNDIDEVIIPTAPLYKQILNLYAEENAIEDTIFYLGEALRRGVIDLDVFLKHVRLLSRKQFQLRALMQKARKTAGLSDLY
UniProt Q8NEZ2: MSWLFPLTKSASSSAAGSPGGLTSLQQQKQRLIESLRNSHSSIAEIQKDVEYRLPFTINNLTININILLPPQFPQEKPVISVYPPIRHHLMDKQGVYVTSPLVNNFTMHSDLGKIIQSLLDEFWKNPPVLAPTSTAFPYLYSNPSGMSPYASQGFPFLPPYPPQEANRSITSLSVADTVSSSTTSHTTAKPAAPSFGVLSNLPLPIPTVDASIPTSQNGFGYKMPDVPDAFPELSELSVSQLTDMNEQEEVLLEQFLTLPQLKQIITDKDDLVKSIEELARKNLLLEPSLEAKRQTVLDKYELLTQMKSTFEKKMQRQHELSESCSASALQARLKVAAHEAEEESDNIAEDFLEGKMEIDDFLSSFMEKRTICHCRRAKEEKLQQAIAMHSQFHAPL
Flag–VPS37A(Mod(r)): residues 229-397 of Q8NEZ2
UniProt A5D8V6: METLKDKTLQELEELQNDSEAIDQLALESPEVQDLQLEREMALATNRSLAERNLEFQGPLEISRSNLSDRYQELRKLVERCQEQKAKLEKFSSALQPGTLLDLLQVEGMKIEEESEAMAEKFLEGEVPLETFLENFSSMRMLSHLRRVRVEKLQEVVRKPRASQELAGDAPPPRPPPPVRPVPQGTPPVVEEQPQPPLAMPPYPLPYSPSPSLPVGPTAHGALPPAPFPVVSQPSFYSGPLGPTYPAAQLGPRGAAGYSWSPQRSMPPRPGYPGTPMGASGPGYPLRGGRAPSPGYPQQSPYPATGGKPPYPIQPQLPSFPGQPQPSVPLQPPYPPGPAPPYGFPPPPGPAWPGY

Key:
[1] = target: HA–TSG101 (in vitro translated) (human) (UniProt Q99816); experiment: co-IP; 35S-labelled ESCRT-I subunits co-translated in rabbit reticulocyte lysate, diluted tenfold in 10 mM Tris-HCl pH 7.4, 150 mM NaCl, 1 mM EDTA, 0.1% Triton X-100; IP of HA–TSG101 with anti-HA agarose overnight; SDS-PAGE and phosphoimaging
[2] = target: Flag–VPS37A (in vitro translated, full length) (human) (UniProt Q8NEZ2); experiment: as above
[3] = target: Flag–VPS37C (in vitro translated) (human) (UniProt A5D8V6); experiment: as above
[4] = target: MVB12A–strep (expressed in cells) (human) (UniProt Q96EY5); experiment: pull-down; lysates of cells transiently expressing strep-tagged UBAP1, UBAP1 fragments or MVB12A applied to Strep-Tactin beads; control-depleted cells (for MVB12A also cells depleted of VPS37A, VPS37B or VPS37C); 10 mM Tris-HCl pH 7.4, 150 mM NaCl, 1 mM EDTA, 0.5% CHAPS; 4°C; western blot of endogenous partners
[5] = target: Flag–VPS37A(Mod(r)) (human) (UniProt Q8NEZ2); experiment: co-IP; 35S-labelled ESCRT-I subunits co-translated in rabbit reticulocyte lysate, diluted tenfold in 10 mM Tris-HCl pH 7.4, 150 mM NaCl, 1 mM EDTA, 0.1% Triton X-100; IP of HA–TSG101 with anti-HA agarose overnight; SDS-PAGE and phosphoimaging

binding [1] | binding [2] | binding [3] | binding [4] | binding [5] | Substance
binds | – | – | – | – | Flag–VPS37A (in vitro translated, full length) (from UniProt Q8NEZ2 1-397)
– | no binding | binds | – | – | MVB12A(EBB1-EBB2) (from UniProt Q96EY5 192-273) (domain or fragment)
– | – | – | binds | – | VPS37C (endogenous) (from UniProt A5D8V6 1-355)
– | no binding | binds | – | no binding | strep–MVB12A (in vitro translated, full length) (from UniProt Q96EY5 1-273)
